Assay results taken from the RNAGym collection of RNA variant scans (doi:10.7554/elife.90254).
Read counts are not given, so values of variants with three or more changes are uncertain.

B1: LINE1-mini (parent)
chain: GGCAGAGCUCAACACAGCGUGGCAAAGUGGCUGUGGCUAGACUGCC

Variants of: B1
Assay: self-cleavage, relative activity (ratio to wild type); higher = more cleavage; in vitro, sequencing; the parent is a self-cleaving ribozyme

| Variant | self-cleavage |
| --- | --- |
| C10G A16G G35C | 0.02 |
| C10G A14G G21U | 0.05 |
| C10A U20A G21U G36U | 0.01 |
| C10G C13A C37U | 0.01 |
| C10G A14U C15G G27U | 0.02 |
| C10G A25C C46A | 0.05 |
| C10A G30U C31U C46U | 0.03 |
| C10G A39G C46U | 0.01 |
| C10A C31G G33U G40A C45G | 0.02 |
| C10A G21U C46A | 0.18 |
| C10G C13A A16G U28C | 0.01 |
| C10A G22A G44C C45U | 0.01 |
| C10A G27U U34A | 0.56 |
| C10G A41C U43C G44U C45G | 0.01 |
| C10A G19U A25U | 0.08 |
| C10A G22U A26U G33A | 0 |
| C10A G36A G44A | 0.11 |
| C10A G29U U34G | 0.02 |
| C10G A12G C15A A16U G19U C31G G44C | 0 |
| C10A G21U U43C | 0 |
| C10G A12G C15A A39C A41C | 0.01 |
| C10A G21C G33U G44C | 0.01 |
| C10A C37U U38C A41C U43C | 0.04 |
| C10A G22A C23U A26C G40U C42G | 0.02 |

| Variant | self-cleavage |
| --- | --- |
| C10A C31U A41C C45G | 0.02 |
| C10A G21A G44C | 0.06 |
| C10A G44U C45A | 0.1 |
| C10A G21U G29C A41C | 0 |
| C10A G27U U38G | 0.03 |
| C10G A11U C15A | 0.02 |
| C10A G36C A41C C46G | 0.02 |
| C10A G29U G35C | 0.01 |
| C10A G19C G21A A24U G30U G40U U43C | 0.02 |
| C10A C23U G36U C46U | 0.01 |
| C10A G21A G29A | 0.06 |
| C10G C13U C31A C46A | 0.03 |
| C10A G27C C37G C45A | 0 |
| C10G A11U A14G G40A | 0 |
| C10A G17A G27A A41C | 0.01 |
| C10A G29U U34A C45G | 0 |
| C10A G27C G40U | 0.01 |
| C10A G19U A25U G27C G29A | 0.02 |
| C10G A16G C42G | 0.02 |
| C10A G27U G29A C37A A39U | 0 |
| C10G A25C C45A | 0.02 |
| C10A G19A G27C | 0.04 |
| C10A G22C U43C G44U | 0 |
| C10A C23U U28C G30U G44C | 0.02 |

| Variant | self-cleavage |
| --- | --- |
| C10A C31A U32G | 0.17 |
| C10G A16G A24U G35U | 0.02 |
| C10A U20C G35A G36U | 0.01 |
| C10G C13A C15A G30C | 0.02 |
| C10A G21C C42A | 0.02 |
| C10G A11U C23A C31G | 0.01 |
| C10G A39U A41G | 0.14 |
| C10G A11G C45U | 0.04 |
| C10G A14U C15G G21C | 0.02 |
| C10G A14U G30U G35U G40U A41U | 0 |
| C10A G17U C31A | 0.07 |
| C10A G33U G44A | 0.02 |
| C10A U20A G29A | 0.02 |
| C10A C23U U34A C37U | 0.03 |
| C10A G17U G27U U34A C37G | 0.02 |
| C10A G17U C23U G30U U38A A39U | 0.02 |
| C10G C15A C42U | 0.02 |
| C10G A11G U20C G44C | 0.01 |
| C10A G29A G44A | 0 |
| C10A G29A G44U | 0.06 |
| C10A U34A G40A | 0.03 |
| C10G A25G U34C C37G A41C | 0 |
| C10G C13U A14U C18A U32A A41G | 0.01 |
| C10A C31U A39U | 0.12 |

| Variant | self-cleavage |
| --- | --- |
| C10A G35A G44C | 0.1 |
| C10A U20G U28G | 0 |
| C10G A11U G27U G30A G35A G36A C46U | 0 |
| C10A U20C G22U | 0.01 |
| C10A G36A G40U G44A | 0 |
| C10A G27A U28C | 0.01 |
| C10A G22U U32A | 0.02 |
| C10A C23U A24U C37U | 0.01 |
| C10A U32A G33U | 0.04 |
| C10G A11G A25C | 0.02 |
| C10A G17C C42U G44A | 0.03 |
| C10A C23U C31G U43C | 0.01 |
| C10A G29A C31U | 0.15 |
| C10A G17A C31U | 0.04 |
| C10A G17C A26U | 0.03 |
| C10G A14G C18G | 0.01 |
| C10A G17U C31G A41U | 0.03 |
| C10A C23G G36U C42G | 0.02 |
| C10A G30C A39U | 0.15 |
| C10A G19C U20C | 0.02 |
| C10A G22C U28G | 0.01 |
| C10A U32A U34G | 0.01 |
| C10G A11G A14C C15U G33A C37G | 0.01 |
| C10A G22A G44A | 0.02 |

| Variant | self-cleavage |
| --- | --- |
| C10A G21A G27C | 0.05 |
| C10A U34C G36U | 0 |
| C10A G27C G35A U38C C46A | 0.01 |
| C10G A12U G40C | 0.01 |
| C10G A26C U32A | 0.03 |
| C10G A16G C31A G44U | 0.01 |
| C10A G27C G33C | 0.01 |
| C10G A12U A24C C42A | 0.01 |
| C10G A14G A26U G36C A39C | 0.01 |
| C10G A25U U28A C37G A39C | 0.02 |
| C10G A39C U43C | 0.01 |
| C10A G21U A24C | 0.04 |
| C10A G30C A41C | 0 |
| C10G A14G A16G A26C G29U G36U | 0.01 |
| C10G A14C G29U | 0.04 |
| C10A G30U G35A U43C | 0.03 |
| C10G A16U A39U | 0.04 |
| C10G C13A C23U C42G | 0.02 |
| C10A U20G G21A A41C | 0 |
| C10G A14C C15U A25U | 0 |
| C10A C23U C42A C46U | 0.01 |
| C10A G27A G40U | 0.15 |
| C10G A12G C13U C15U G29U | 0.04 |
| C10A G17A G29U A39U | 0 |

| Variant | self-cleavage |
| --- | --- |
| C10A C23G G27C U32A U38A | 0.03 |
| C10A U20G G21U C31G | 0.03 |
| C10A U38G C45G | 0.03 |
| C10A G33A U43C C46A | 0.02 |
| C10A G22U U32C C45A | 0 |
| C10G A14U C15A G21A A25U A41G | 0 |
| C10A G17U C23A C37G | 0 |
| C10G A12G G33U G35A | 0.01 |
| C10A G29C U43C | 0.01 |
| C10A G33C G40C | 0.02 |
| C10A G19U G35A | 0.01 |
| C10A G30A G40C A41C | 0.02 |
| C10A G17U C23U | 0.1 |
| C10A G33U A39U A41U | 0.01 |
| C10G A25C U28C | 0.05 |
| C10G C13G C18A | 0.03 |
| C10G A16U U34A | 0.02 |
| C10A G36U C37U | 0.02 |
| C10A G21U G29C | 0.06 |
| C10G A24G G44A | 0.11 |
| C10A U38C G40C G44A | 0.04 |
| C10A U34G G35C C45A | 0.01 |
| C10G C13U U20A A39G G40U | 0.01 |
| C10A G17A U34A A41C | 0.04 |

| Variant | self-cleavage |
| --- | --- |
| C10A C42U C45A | 0 |
| C10A C42U C45G | 0.02 |
| C10A G21U G22C G40A | 0.02 |
| C10A G21U G22U G40U | 0.01 |
| C10G A11G C15G A16G C18G | 0.01 |
| C10A G22C G40A | 0.02 |
| C10A G22A G27U | 0.04 |
| C10A G17C U38C | 0.1 |
| C10A G22U U34A | 0.05 |
| C10A G19A G22C | 0.02 |
| C10G C13A G17A U32A G36C | 0.04 |
| C10G A12G G19A | 0.01 |
| C10G C15A G17A G21U G29U | 0.01 |
| C10G A14U C15A G27U C42G | 0.02 |
| C10G A11G G19C G27A G29U C31G | 0 |
| C10G A25C C31A | 0.01 |
| C10A G19U G21U G30U G33U | 0 |
| C10A U20C U32G | 0.01 |
| C10G C13U C18A G33U G40C | 0.03 |
| C10G C13A A14U A39G | 0.04 |
| C10A U34C U43C | 0.03 |
| C10G A12U C23U A41C G44C | 0.01 |
| C10A G29U A39U | 0.15 |
